According to the supplement of paper PMC8728848:
Some of the results follow.

Legend:
Experiment in all cases: glycan array binding signal (z-score within array); higher = stronger binding
Details in all cases: glycan notation: IUPAC condensed, linker removed; mutation: I144G
[1] = target: Fuc(a1-2)Gal(b1-4)GlcNAc(b1-3)Gal(b1-4)GlcNAc(b1-2)Man(a1-3)[Fuc(a1-2)Gal(b1-4)GlcNAc(b1-3)Gal(b1-4)GlcNAc(b1-2)Man(a1-6)]Man(b1-4)GlcNAc(b1-4)GlcNAc
Procedure, shortened: (§1)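 Glycan array data came from 3228 arrays in the Consortium for Functional Glycomics database, and only arrays with an available protein sequence were kept. Glycan names were put into IUPAC-condensed notation, and columns mapping to the same glycan were averaged. The binding signal is a within-array Z-score, averaged across arrays of one protein sequence run at different concentrations or buffers and across linkers. A negative Z-score can be read as non-binding.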

[2] = target: Fuc(a1-2)Gal(b1-4)GlcNAc(b1-3)Gal(b1-4)GlcNAc(b1-3)Gal(b1-4)GlcNAc
Procedure, shortened: as §1

[3] = target: Fuc(a1-2)Gal(b1-4)GlcNAc(b1-3)GalNAc
Procedure, shortened: as §1

[4] = target: Fuc(a1-2)Gal(b1-4)GlcNAc(b1-3)[Fuc(a1-2)Gal(b1-4)GlcNAc(b1-6)]GalNAc
Procedure, shortened: as §1

[5] = target: Fuc(a1-2)Gal(b1-4)GlcNAc(b1-3)[Fuc(a1-3)[Gal(b1-4)]GlcNAc(b1-6)]Gal(b1-4)Glc
Procedure, shortened: as §1

[6] = target: Fuc(a1-2)Gal(b1-4)GlcNAc(b1-6)GalNAc
Procedure, shortened: as §1

[7] = target: Fuc(a1-2)Gal(b1-4)GlcNAc6S
Procedure, shortened: as §1

[8] = target: Fuc(a1-2)Gal(b1-4)[Fuc(a1-3)]GlcNAc
Procedure, shortened: as §1

[9] = target: Fuc(a1-2)Gal(b1-4)[Fuc(a1-3)]GlcNAc(b1-2)Man(a1-3)[Fuc(a1-2)Gal(b1-4)[Fuc(a1-3)]GlcNAc(b1-2)Man(a1-6)]Man(b1-4)GlcNAc(b1-4)[Fuc(a1-6)]GlcNAc
Procedure, shortened: as §1

[10] = target: Fuc(a1-2)Gal(b1-4)[Fuc(a1-3)]GlcNAc(b1-2)[Fuc(a1-2)Gal(b1-4)[Fuc(a1-3)]GlcNAc(b1-4)]Man(a1-3)[Fuc(a1-2)Gal(b1-4)[Fuc(a1-3)]GlcNAc(b1-2)Man(a1-6)]Man(b1-4)GlcNAc(b1-4)GlcNAc
Procedure, shortened: as §1

[11] = target: Fuc(a1-2)Gal(b1-4)[Fuc(a1-3)]GlcNAc(b1-3)Gal(b1-4)[Fuc(a1-3)]GlcNAc
Procedure, shortened: as §1

[12] = target: Fuc(a1-2)Gal(b1-4)[Fuc(a1-3)]GlcNAc(b1-3)Gal(b1-4)[Fuc(a1-3)]GlcNAc(b1-3)Gal(b1-4)[Fuc(a1-3)]GlcNAc
Procedure, shortened: as §1

[13] = target: Fuc(a1-2)Gal(b1-4)[Fuc(a1-3)]GlcNAc(b1-3)GalNAc
Procedure, shortened: as §1

[14] = target: Fuc(a1-2)Gal(b1-4)[Fuc(a1-3)]GlcNAc(b1-3)[Neu5Ac(a2-6)Gal(b1-4)GlcNAc(b1-6)]Gal(b1-4)Glc
Procedure, shortened: as §1

[15] = target: Fuc(a1-2)Gal3S(b1-4)GlcNAc
Procedure, shortened: as §1

[16] = target: Fuc(a1-2)Gal6S(b1-3)GlcNAc
Procedure, shortened: as §1

[17] = target: Fuc(a1-2)Gal6S(b1-3)GlcNAc6S
Procedure, shortened: as §1

Fuc(a1-2)Gal6S(b1-4)Glc = target: Fuc(a1-2)Gal6S(b1-4)Glc
Procedure, shortened: as §1

[18] = target: Fuc(a1-2)Gal6S(b1-4)Glc6S
Procedure, shortened: as §1

Fuc(a1-2)[Gal(a1-3)]Gal = target: Fuc(a1-2)[Gal(a1-3)]Gal
Procedure, shortened: as §1

[19] = target: Fuc(a1-2)[Gal(a1-3)]Gal(b1-3)GalNAc
Procedure, shortened: as §1

[20] = target: Fuc(a1-2)[Gal(a1-3)]Gal(b1-3)GalNAc(b1-3)Gal(a1-4)Gal(b1-4)Glc
Procedure, shortened: as §1

[21] = target: Fuc(a1-2)[Gal(a1-3)]Gal(b1-3)GlcNAc
Procedure, shortened: as §1

[22] = target: Fuc(a1-2)[Gal(a1-3)]Gal(b1-3)GlcNAc(b1-2)Man(a1-3)[Fuc(a1-2)[Gal(a1-3)]Gal(b1-3)GlcNAc(b1-2)Man(a1-6)]Man(b1-4)GlcNAc(b1-4)GlcNAc
Procedure, shortened: as §1

[23] = target: Fuc(a1-2)[Gal(a1-3)]Gal(b1-3)GlcNAc(b1-2)Man(a1-3)[Fuc(a1-2)[Gal(a1-3)]Gal(b1-3)GlcNAc(b1-2)Man(a1-6)]Man(b1-4)GlcNAc(b1-4)[Fuc(a1-6)]GlcNAc
Procedure, shortened: as §1

[24] = target: Fuc(a1-2)[Gal(a1-3)]Gal(b1-3)GlcNAc(b1-3)GalNAc
Procedure, shortened: as §1

[25] = target: Fuc(a1-2)[Gal(a1-3)]Gal(b1-3)GlcNAc(b1-6)GalNAc
Procedure, shortened: as §1

[26] = target: Fuc(a1-2)[Gal(a1-3)]Gal(b1-4)Glc
Procedure, shortened: as §1

[27] = target: Fuc(a1-2)[Gal(a1-3)]Gal(b1-4)GlcNAc
Procedure, shortened: as §1

[28] = target: Fuc(a1-2)[Gal(a1-3)]Gal(b1-4)GlcNAc(b1-2)Man
Procedure, shortened: as §1

B1: rAAL-I144G (Agrocybe aegerita), Q6WY08 (protein)
chain: MQGVNIYNISAGTSVDLAAPVTTGDIVTFFSSALNLNAGAGNPNNTTLNLFAENGAYLLHIAFRLQENVIIFNSRQPDGPWLVEQRVSDVANQFAGIDGKAMVTVFDHGDKYQVVINEKTVIQYTKQISGLTLSLSYNATEETSGFSTVVEAVTYTGLALEHHHHHH
glycan array binding signal (z-score) [1]: -0.187 | glycan array binding signal (z-score) [2]: -0.145 | glycan array binding signal (z-score) [3]: -0.078 | glycan array binding signal (z-score) [4]: -0.077 | glycan array binding signal (z-score) [5]: -0.047 | glycan array binding signal (z-score) [6]: -0.061 | glycan array binding signal (z-score) [7]: -0.109 | glycan array binding signal (z-score) [8]: -0.056 | glycan array binding signal (z-score) [9]: -0.117 | glycan array binding signal (z-score) [10]: 0.078 | glycan array binding signal (z-score) [11]: -0.039 | glycan array binding signal (z-score) [12]: -0.144 | glycan array binding signal (z-score) [13]: -0.124 | glycan array binding signal (z-score) [14]: -0.075 | glycan array binding signal (z-score) [15]: -0.067 | glycan array binding signal (z-score) [16]: -0.155 | glycan array binding signal (z-score) [17]: -0.087 | glycan array binding signal (z-score) (Fuc(a1-2)Gal6S(b1-4)Glc): -0.039 | glycan array binding signal (z-score) [18]: -0.143 | glycan array binding signal (z-score) (Fuc(a1-2)[Gal(a1-3)]Gal): -0.102 | glycan array binding signal (z-score) [19]: 0.143 | glycan array binding signal (z-score) [20]: -0.18 | glycan array binding signal (z-score) [21]: -0.104 | glycan array binding signal (z-score) [22]: -0.093 | glycan array binding signal (z-score) [23]: -0.145 | glycan array binding signal (z-score) [24]: -0.158 | glycan array binding signal (z-score) [25]: -0.189 | glycan array binding signal (z-score) [26]: -0.079 | glycan array binding signal (z-score) [27]: -0.113 | glycan array binding signal (z-score) [28]: -0.142
